In PMC5836133:
The list shows a part of the results. At the low end of the ranking the order means little.

Test system: T1, GST-NbGlk1(82-244)
T1 sequence: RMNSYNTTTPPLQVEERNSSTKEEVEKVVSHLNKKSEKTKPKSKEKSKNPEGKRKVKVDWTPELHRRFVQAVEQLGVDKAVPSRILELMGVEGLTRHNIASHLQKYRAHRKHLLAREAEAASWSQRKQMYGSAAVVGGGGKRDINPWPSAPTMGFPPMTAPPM
Assay: protein-binding microarray;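 note: rank-based score ranging −0.5 to +0.5 with E above 0.45 taken as significant binding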
Settings: NbGlk1 is a Golden2-like transcription factor of Nicotiana benthamiana; high values mean tight binding; most listed sequences are background and not binding sites; double strand, one strand shown

Sequence | binding signal [E-score]
ACGTGGTC | -0.201
ATAATCAC | 0.214
ACCTGGTC | -0.255
ACAAGTTG | -0.124
AGGGGCTC | -0.297
AAAGTAAA | 0.0977
AATACACA | 0.0883
ACTGAACT | -0.0987
ACCGATTC | 0.21
AAAAACCC | -0.0323
CAACCGCG | 0.0348
ACGTGGAT | 0.283
AGATACTA | 0.194
ATACTTCC | 0.018
CAAGCGGG | -0.129
AACTCACT | -0.0993
ATATCCCA | 0.371
AACGAGTG | -0.0124
AGCCGGAA | -0.138
AACATTCT | 0.0693
ACCTAGGT | -0.0754
ATTCGTAA | 0.208
ACGAGCAG | -0.0897
AGGTTCCA | -0.159
ATGTGCAG | -0.0877

Sequence | binding signal [E-score]
ACTGTGCC | -0.163
ACGAGCGA | -0.0224
ATGCAAGC | -0.184
ATGACTCC | -0.135
ATCTTATC | 0.288
ACAAAAAC | -0.00308
ACTGTGAT | 0.208
ATCAGCAA | 0.124
ACACATCT | -0.0197
AGACGCAT | -0.0907
AATAAGAC | -0.167
ATATCGTA | 0.364
ACGATAGC | -0.128
ATGTGCGG | -0.0928
ACTGATCA | 0.0257
AATACGAC | 0.031
AACGCCGT | -0.196
AGAATGAG | -0.0766
ACAGTGTG | -0.179
ACACATAA | 0.0601
AAACTTTC | -0.0209
CACCCGAA | -0.139
AATCGAGG | 0.197
AAGTTTCT | -0.148
CACAAGCG | 0.0164

Sequence | binding signal [E-score]
AGCCGTGA | -0.0714
AGTTCGTC | -0.0902
AAAATTAA | 0.184
AAACTGAT | 0.152
AGGCCACC | -0.194
ACACTTGA | 0.00963
ACAAGTAT | 0.103
CAATATCG | 0.306
ACCACCCG | -0.169
AGGACTAG | -0.111
AACTCAAC | 0.0205
ACGTACGA | -0.0205
AGAGTCCG | -0.292
AAGATACC | 0.228
AACCGATA | 0.16
AGCTGGTG | -0.198
AGCTTAGG | -0.169
ACTTAAAG | -0.05
AGCCGCCC | -0.309
AGGCTAGG | -0.252
ATCCGCGC | 0.215
AAACAACG | -0.0293
ATGTAAGA | 0.0949
AATCTATA | 0.402
ACGTAATA | 0.285

Sequence | binding signal [E-score]
ATGACTGA | -0.135
ACTGAGAC | -0.074
ACTAGAAA | 0.12
AGAGACGG | -0.364
AAAGAACA | 0.00397
AGCCACAA | -0.111
AGAAACTC | -0.169
ATATATGG | 0.224
ATAGTGCC | -0.0275
AGATAGTA | 0.177
AAATAGGC | -0.0451
AGGCAGAT | 0.213
CACAGCCC | -0.319
CAATTAAA | 0.00938
ATTTTAAA | 0.244
AAGCTTAC | -0.148
AAGGGACG | -0.23
AGCGGTTG | -0.21
AATGTTAG | 0.0233
AAATAAGA | 0.162
ATTGCCTC | 0.168
ATCCTGGA | 0.296
AGCCGGCA | -0.213
ATCACTTA | 0.174
AACACGAT | 0.237

Sequence | binding signal [E-score]
ACGAGCGC | -0.11
CAGAGCGA | -0.0365
AATGTTCG | -0.144
ACTCCTAA | -0.114
ACGCACTC | -0.177
ACGAGGTC | -0.186
AAGGCCCC | -0.423
CACAAAAG | -0.0721
ATAGACTC | -0.164
ACCGAGAT | 0.274
ACGTGCGA | 0.0367
AGTGGAGA | 0.11
AAGCCCGG | -0.358
ATACCCCC | -0.0125
AAGAGCAC | -0.142
AGGATGTC | -0.131
AGTAAACC | -0.159
ACCCACGG | -0.115
ACCAACTG | -0.0572
ATCGCGGG | 0.261
CAAGTTGG | -0.179
ATGCTTAG | -0.0426
AATCCAGA | 0.349
AAAACAAT | 0.143
AGCCTGAG | -0.158

Sequence | binding signal [E-score]
ACTGGTAG | -0.191
CACACTGC | -0.198
AATTATCG | 0.131
ATTTCAAC | 0.19
AGGTTTTG | -0.0377
ACTTGATC | -0.0283
AGCTATGC | -0.141
AGGACGGA | -0.146
CAACCCGA | -0.0868
ACGTGGGC | -0.104
ACAAACCA | 0.1
AGCATGCG | -0.172
ATAATAGA | 0.138
AAGGGATA | 0.18
CAGCGTAC | -0.251
ACGTCGAC | -0.0609
ACGGCATG | -0.123
AATATAGA | 0.271
AGTTGTCA | 0.0329
ACGCGAAT | 0.244
AAACAATG | -0.0893
ACAGAAAT | 0.248
ACATGACC | -0.211
AATCTATG | 0.38
AGGTACCT | -0.256

Sequence | binding signal [E-score]
AGCTTGAT | -0.00356
AACTGACC | -0.22
AAAAAAAT | 0.286
AGCCAGTC | -0.21
ACCGTAGA | -0.0538
ATGAGTGA | -0.0807
ATGTCGTA | 0.0977
ACTACTGC | -0.104
ATACTTCG | -0.0227
AAACATCC | -0.0108
AATAGCCG | -0.0189
ACCTCCTA | -0.307
CAATAGTG | -0.0417
CAACCTGG | -0.243
AGTTATCA | 0.0517
ACTGAACA | -0.0555
ACCATGCC | -0.121
AATATCGC | 0.331
ATGACGTA | 0.0469
ATGCCCAA | 0.022
CACGCGAA | -0.0174
AACGACAC | -0.107
